The full ranking holds about 33,000 sequences; the median of “E-score (-0.5 to 0.5)” is about -0.04, and the highest 2% start at about 0.36. The list shows a part of the results.
Each sequence was assayed against T1, Hmlalpha2 (UniProt P0CY09) (assay: PBM E-score (8-mer binding enrichment) (E-score (-0.5 to 0.5)); higher = stronger / more preferred TF binding; most listed sequences are background and not binding sites). Details: protein concentration: 200 nM; construct: GST-full length.
T1 sequence: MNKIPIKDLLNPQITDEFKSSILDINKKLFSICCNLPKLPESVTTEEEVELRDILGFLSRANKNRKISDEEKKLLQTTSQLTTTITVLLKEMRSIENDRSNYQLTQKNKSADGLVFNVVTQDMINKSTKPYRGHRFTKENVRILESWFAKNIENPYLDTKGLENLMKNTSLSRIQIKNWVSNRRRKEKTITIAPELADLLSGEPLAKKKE
How it was run: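 Each ungapped eight-base word and its reverse complement, pooled, received an E-score from the Universal PBM Analysis Suite. Underlying scans, normalised with masliner, recorded fluorescent anti-GST bound to GST-tagged yeast transcription factors. These were applied at about 100-200 nM to universal all-10-mer Agilent arrays double-stranded by primer extension.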

Going from AATGCCTC to TAGTAACA, the “PBM E-score” value rises from 0.0341 to 0.272.

Going from AAATTGTA to ACTTCTGA, the “PBM E-score” value falls from 0.0866 to -0.149.

Going from ATAAACCC to CAAACAAC, the “PBM E-score” value rises from 0.0016 to 0.305.

Compared with GTAAGCTA, ACTACCTC is lower in “PBM E-score” value: 0.115 for the first, -0.035 for the second.

First: ACGACCTG
Second: CCCACACA
The “PBM E-score” value of the first is higher: -0.0201 for the first, -0.234 for the second.

First: AAGTGAGC
Second: TAAGCCGA
The “PBM E-score” value of the first is lower: -0.0663 for the first, -0.0599 for the second.

Compared with GGGGATGA, ACTTACCC is higher in “PBM E-score” value: -0.36 for the first, 0.035 for the second.

Compared with GACAACGC, AAGAATCG is higher in “PBM E-score” value: 0.125 for the first, 0.134 for the second.

Going from CCTGATGA to ACTTCGTA, the “PBM E-score” value rises from -0.0972 to 0.0376.

Going from AGCGTCAG to CTCTTTGA, the “PBM E-score” value rises from -0.0948 to -0.0927.

Going from ACCTCGCG to ATCAATTG, the “PBM E-score” value rises from -0.158 to 0.0949.

Compared with GCCACCCA, ATGAAGGA is higher in “PBM E-score” value: -0.175 for the first, 0.241 for the second.

Compared with AACTCCTT, GAGTCATC is lower in “PBM E-score” value: 0.0825 for the first, -0.24 for the second.

Going from CTGGATGC to CCGTTGCA, the “PBM E-score” value rises from -0.316 to -0.125.

Compared with CAATTGAA, GTTATGAA is higher in “PBM E-score” value: -0.102 for the first, 0.186 for the second.

Compared with ACGTGCAG, CGCTGAAG is lower in “PBM E-score” value: 0.0703 for the first, -0.174 for the second.

Going from ACCTACCG to AAGCTACT, the “PBM E-score” value rises from -0.13 to 0.0935.

Going from ATTCGGTG to AGAGTCCA, the “PBM E-score” value falls from 0.0759 to -0.0748.

Going from CTACCGGC to ACCTTGCG, the “PBM E-score” value rises from -0.231 to -0.0929.

First: TTCCGGAA
Second: CAAAGAAA
The “PBM E-score” value of the first is lower: 0.0484 for the first, 0.0656 for the second.

Going from GACTGACA to GACTCTCC, the “PBM E-score” value falls from -0.0674 to -0.279.

Going from AAATCCGT to GACAGAAC, the “PBM E-score” value falls from -0.00398 to -0.123.

First: ATAACCAT
Second: CTGCAAGA
The “PBM E-score” value of the first is higher: 0.00846 for the first, -0.0816 for the second.

First: ACCCCATG
Second: CGTGCTCC
The “PBM E-score” value of the first is higher: 0.0298 for the first, -0.164 for the second.

First: GCTCCATA
Second: GGGAGTCA
The “PBM E-score” value of the first is higher: -0.219 for the first, -0.356 for the second.

Compared with ATTATCGG, ACCCCGGG is lower in “PBM E-score” value: -0.121 for the first, -0.216 for the second.

Going from ACTGTACG to CAAATGGA, the “PBM E-score” value rises from 0.017 to 0.0223.

Going from AGCCTATC to CAAGCCAG, the “PBM E-score” value rises from -0.273 to -0.0099.

Compared with CGAGCCAG, CCGTACAA is higher in “PBM E-score” value: 0.0182 for the first, 0.087 for the second.

Going from AATCCACC to ACACTGGT, the “PBM E-score” value rises from -0.103 to 0.0301.

Going from ATAACGTG to ACAGTTTG, the “PBM E-score” value falls from 0.281 to -0.00642.

Going from AAGCTAAA to CAGTTGCG, the “PBM E-score” value falls from 0.0304 to -0.0715.

Compared with AGCGGGCA, CGGTCACC is higher in “PBM E-score” value: -0.36 for the first, -0.13 for the second.

First: ATTTTGAG
Second: TAAGTAAA
The “PBM E-score” value of the first is lower: -0.0297 for the first, 0.269 for the second.

Going from AGGAAATG to GCGCCCCA, the “PBM E-score” value falls from 0.0448 to -0.236.

Compared with AACAGCTC, AACCGCCT is higher in “PBM E-score” value: -0.137 for the first, -0.0917 for the second.

Going from AGCAGGTG to ACGATTAT, the “PBM E-score” value falls from -0.00979 to -0.115.

Compared with ATGTGCAA, CACTAGCC is lower in “PBM E-score” value: 0.13 for the first, -0.0344 for the second.

First: ATATGAAG
Second: CACAAAAA
The “PBM E-score” value of the first is lower: -0.0366 for the first, 0.165 for the second.

Going from ATGTCGCC to AAAGTTAG, the “PBM E-score” value rises from 0.0149 to 0.166.

First: GCTGGTTA
Second: CATACCAG
The “PBM E-score” value of the first is higher: 0.0943 for the first, -0.139 for the second.

Going from ATCTGCAC to GCTGGATA, the “PBM E-score” value rises from -0.0741 to 0.0277.

First: CATGTAGA
Second: AGACGATG
The “PBM E-score” value of the first is higher: 0.472 for the first, -0.0245 for the second.

Compared with GACTTTCC, CGTGACAG is higher in “PBM E-score” value: -0.121 for the first, 0.0356 for the second.

Going from CACCACAC to ATCCGACA, the “PBM E-score” value rises from 0.0128 to 0.0939.

Going from AGCGCGGG to CAACATTG, the “PBM E-score” value rises from 0.0254 to 0.312.

First: CCGAAGCA
Second: AACCGTCC
The “PBM E-score” value of the first is higher: -0.00945 for the first, -0.35 for the second.

Going from ACCAGCCC to ATTAAGAG, the “PBM E-score” value rises from -0.1 to -0.0103.

Compared with GATGCCAC, GGTGTATA is higher in “PBM E-score” value: -0.3 for the first, 0.0823 for the second.

First: ACCTTAAC
Second: AGTTTCGC
The “PBM E-score” value of the first is higher: 0.0374 for the first, -0.15 for the second.

Compared with GATGCCTA, GCGGTGCC is lower in “PBM E-score” value: 0.0155 for the first, -0.169 for the second.

Going from CACTAGTA to GACTTACA, the “PBM E-score” value rises from 0.0732 to 0.274.

Going from ACCTATAA to AACAGATA, the “PBM E-score” value rises from -0.029 to 0.11.

Compared with CTGCTGTC, ATCGAGTC is higher in “PBM E-score” value: -0.0801 for the first, -0.033 for the second.

Going from TAAATCGA to ACCAGGCC, the “PBM E-score” value falls from 0.175 to 0.0909.

Going from GAGGAAAC to CAGTGGGG, the “PBM E-score” value falls from -0.0879 to -0.257.

Going from CCCGCTAA to CATACATC, the “PBM E-score” value rises from -0.328 to 0.253.

First: CAAAGCCA
Second: GGGTACCC
The “PBM E-score” value of the first is higher: -0.00746 for the first, -0.283 for the second.

First: CCCAGCAC
Second: AATACTGG
The “PBM E-score” value of the first is lower: -0.275 for the first, -0.0805 for the second.

First: GCGTCCTA
Second: CCCGGCCG
The “PBM E-score” value of the first is higher: 0.00602 for the first, -0.261 for the second.

Compared with CGTAAAGA, CAGACCCA is lower in “PBM E-score” value: 0.333 for the first, -0.102 for the second.

Compared with CTGCTAGA, GATTGCGA is higher in “PBM E-score” value: -0.143 for the first, -0.0143 for the second.

First: CATATCAG
Second: AGATTCTG
The “PBM E-score” value of the first is higher: -0.0492 for the first, -0.112 for the second.

Going from CGGTTGAC to ACGCCAGA, the “PBM E-score” value falls from 0.105 to -0.0917.

Compared with CAAGCTAA, AGACTCCG is lower in “PBM E-score” value: -0.0852 for the first, -0.0955 for the second.

Compared with ATACGGGA, CGATTGAC is higher in “PBM E-score” value: -0.0536 for the first, 0.233 for the second.

First: CCTATATA
Second: ACCCGACA
The “PBM E-score” value of the first is higher: 0.00021 for the first, -0.0309 for the second.

Going from CAACTTCG to CTTCCTGA, the “PBM E-score” value falls from 0.00496 to -0.0268.

First: AATATTTG
Second: AGCGTCCA
The “PBM E-score” value of the first is higher: 0.15 for the first, -0.0582 for the second.

Compared with CGCGGTGC, AAACAGTG is higher in “PBM E-score” value: -0.218 for the first, 0.0284 for the second.

First: ATCCACAT
Second: AGGGGAGG
The “PBM E-score” value of the first is higher: 0.158 for the first, -0.299 for the second.

Going from ACGGCTTA to CGCACACC, the “PBM E-score” value rises from -0.0718 to -0.00368.

Compared with AGACACGA, AACTAGAG is lower in “PBM E-score” value: 0.325 for the first, 0.00649 for the second.

Going from TGACTGAA to ATCTACCG, the “PBM E-score” value falls from -0.0503 to -0.0724.

Compared with ACAATCTA, GGGATGCA is lower in “PBM E-score” value: 0.171 for the first, -0.349 for the second.

Compared with CATCTGGG, GCTTAGCC is lower in “PBM E-score” value: -0.15 for the first, -0.281 for the second.

First: CCGAGTGA
Second: GACTCGCC
The “PBM E-score” value of the first is higher: -0.215 for the first, -0.217 for the second.

Going from GATACTCA to ACTAGAGG, the “PBM E-score” value falls from -0.0664 to -0.0709.

Going from GATCTAAA to GGGAGCGA, the “PBM E-score” value falls from -0.0243 to -0.29.

Going from ATCACTCA to TTAGGCAA, the “PBM E-score” value rises from -0.077 to 0.00947.

Going from CCATACGG to ACAACACG, the “PBM E-score” value rises from -0.085 to 0.417.

Going from AGATTTAT to GGGGACGA, the “PBM E-score” value falls from 0.0596 to -0.158.

First: AACATAAA
Second: AATTACAA
The “PBM E-score” value of the first is lower: 0.28 for the first, 0.436 for the second.

First: CCGGCTAA
Second: CTGGGACA
The “PBM E-score” value of the first is higher: -0.144 for the first, -0.185 for the second.

Compared with AACGCACT, TAGCGCAA is lower in “PBM E-score” value: 0.206 for the first, 0.083 for the second.

Going from GTAGCGCA to GCGTATTA, the “PBM E-score” value rises from -0.17 to 0.349.

From the supplement of paper PMC3334620
